The supplement of paper PMC8821664
Counter-ions that a name gives are not always drawn. The list shows a part of the results. Repeats are few or missing, and single values can be far off.

test system: Beas-2B AQP5-HiBiT reporter cells; experiment: AQP5-HiBiT luminescence relative to vehicle (ratio to vehicle); higher = higher AQP5-HiBiT protein abundance; conditions: 10 µM; 18 h
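Note: monoclonal Beas-2B line stably carrying CMV promoter-driven AQP5-HiBiT, 5,000 cells per well in 384-well plates, lytic HiBiT plus LgBiT NanoLuc luminescence, FDA-approved drug library screen.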

| SMILES | AQP5-HiBiT luminescence |
| --- | --- |
| CCCCS(=O)(=O)N[C@@H](Cc1ccc(OCCCCC2CCNCC2)cc1)C(=O)O [Tirofiban hydrochloride monohydrate] | 0.615 |
| C[N+](C)(C)CC(=O)O [Betaine] | 0.807 |
| CCCNC(=O)NS(=O)(=O)c1ccc(Cl)cc1 [Chlorpropamide] | 1.16 |
| CC(C)NCC(O)COc1ccc(CCOCC2CC2)cc1 (stereo not given) [Betaxolol hydrochloride] | 1.34 |
| OC[C@@H](O)[C@@H](O)[C@H](O)[C@H](O)CO [D-Mannitol] | 0.817 |
| Cc1ccc(NC(=O)C2(c3ccc4c(c3)OC(F)(F)O4)CC2)nc1-c1cccc(C(=O)O)c1 [Lumacaftor(VX 809)] | 1.03 |
| C#C[C@]1(O)CC[C@H]2[C@@H]3CCc4cc(OC5CCCC5)ccc4[C@H]3CC[C@@]21C [Quinestrol] | 0.911 |
| Nc1cccc2c1CN(C1CCC(=O)NC1=O)C2=O (stereo not given) [Lenalidomide (CC-5013)] | 1.17 |
| CCN[C@H]1CN(CCCOC)S(=O)(=O)c2sc(S(N)(=O)=O)cc21 [Brinzolamide] | 0.819 |
| CC(=O)NO [Acetohydroxamic acid] | 0.676 |
| Cc1nc2c([nH]1)-c1ccccc1N(C(=O)c1ccc(NC(=O)c3ccccc3-c3ccccc3)cc1)CC2 [Conivaptan hydrochloride] | 1.17 |
| Nc1nc(=O)c2nc(CNc3ccc(C(=O)N[C@@H](CCC(=O)O)C(=O)O)cc3)cnc2[nH]1 [Folic acid] | 0.726 |
| O=C1CCCC(=O)C1C(=O)c1ccc(C(F)(F)F)cc1[N+](=O)[O-] [Nitisinone] | 0.827 |
| C=CC(=O)N1CCC[C@@H](n2nc(-c3ccc(Oc4ccccc4)cc3)c3c(N)ncnc32)C1 | 0.364 |
| CC(C)(C)NCC(O)c1cc(O)cc(O)c1 (stereo not given) [Terbutaline Sulfate] | 0.941 |
